Assay results reported in the RNAGym collection of RNA variant scans (doi:10.7554/elife.90254).
Read counts are not given, so values of variants with three or more changes are uncertain.

B1: LINE1-mini (parent)
chain: GGCAGAGCUCAACACAGCGUGGCAAAGUGGCUGUGGCUAGACUGCC

Variants of: B1
Test: self-cleavage, relative activity (ratio to wild type); higher = more cleavage; in vitro, sequencing; the parent is a self-cleaving ribozyme

Variant | self-cleavage
GGCAGAGCUCAAAACAGCGUGGCAAAGUCGUUGUGCCUAGACUGCC [C13A G29C C31U G36C] | 0.36
GGCAGAGCUCAAGCCAGAGUGGCAAAGUGGCUGUGGCUAGACUGCC [C13G A14C C18A] | 0.15
GGCAGAGCUCAAAACACCGUGGCAAAGUUGCUGUGGCUAGACAGCC [C13A G17C G29U U43A] | 0.23
GGCAGAGCUCAAAACAGCGUGGCAAAGUAGCUGUGGCUAGACUGAC [C13A G29A C45A] | 0.1
GGCAGAGCUCAAAAUCCCGCGGCAAAGUGGCUGUGGCUAGACUGCC [C13A C15U A16C G17C U20C] | 0.11
GGCAGAGCUCAAAACAGCGUGGAAAAGUGGCUGUGGCUAGACAGCC [C13A C23A U43A] | 0.05
GGCAGAGCUCAAAACAACGUGGCAAAGUGGCUGUGGCCAGACUGCC [C13A G17A U38C] | 0.02
GGCAGAGCUCAAAACAGCGGGGCGAAGUGGCUGUGGCUAAACUGCC [C13A U20G A24G G40A] | 0.08
GGCAGAGCUCAAAACAGCGGGGCAAAGUGGCUGUGGCCAGACUGCC [C13A U20G U38C] | 0.06
GGCAGAGCUCAAAACAGCGUGGCAUAGCGGCUGUGGCUAGACUGCC [C13A A25U U28C] | 0.14
GGCAGAGCUCAAAACAGCGUGGCAAAGUGAUUGUCGCUAGACUGCC [C13A G30A C31U G35C] | 0.03
GGCAGAGCUCAAAAUAGCGUGGUAAAGUGGCUGUGGCUCGACUGCC [C13A C15U C23U A39C] | 0.12
GGCAGAGCUCAAAACAGCGUGCGAAGGUGAUUGAGGCUAGACUUCC [C13A G22C C23G A26G G30A C31U U34A G44U] | 0
GGCAGAGCUCAAGCCAGCGUGGCAUAGUGGCGGUGUCUAGACUGCC [C13G A14C A25U U32G G36U] | 0.02
GGCAGAGCUCAAAACAGCGGGGCAAAGUGGCUGUUGCUAGACUGCC [C13A U20G G35U] | 0.45
GGCAGAGCUCAAAAAAGCGUGGCAGAGUGGCUGUGGCUAGACUGCC [C13A C15A A25G] | 0.04
GGCAGAGCUCAAAACAGCGUGGCAAAAUGGCUAUGGCUUGACUGCC [C13A G27A G33A A39U] | 0.1
GGCAGAGCUCAAAACAGGGUGGCAAACUGGCUGUGGCUAGACUGCG [C13A C18G G27C C46G] | 0.14
GGCAGAGCUCAAAACAGCGUGGCAAAGUGGCUAUUGCUAGACUGCC [C13A G33A G35U] | 0.01

Variant | self-cleavage
GGCAGAGCUCAAAACAGCGUCGCAAAGUGGCUGUGGCUAGACAGCC [C13A G21C U43A] | 0.06
GGCAGAGCUCAAGUCAGCGUGGCAAAGUGGUUGUGGCUCGACUGCC [C13G A14U C31U A39C] | 0.04
GGCAGAGCUCAAAACAGCGUGGCAAAAUGGUUGUGGCUGGACUGCC [C13A G27A C31U A39G] | 0.08
GGCAGAGCUCAAAACAGCGUGGCAAUGUGGCUGUGGAUAGACUGCC [C13A A26U C37A] | 0.02
GGCAGAGCUCAAAACAGCGUGGCAAAGUUGCUGUGACUAGAAUGCC [C13A G29U G36A C42A] | 0.14
GGCAGAGCUCAAAACAGCGUGCCAAAGUGGCUGUGUCAAGACUGCC [C13A G22C G36U U38A] | 0.02
GGCAGAGCUCAAAACAGAGUGGCAUAGUGGCUGUGGCUAGACUGCC [C13A C18A A25U] | 0.03
GGCAGAGCUCAAAACAGCUUGGGAAAGUGGCUGUGGUUAGAUUGCC [C13A G19U C23G C37U C42U] | 0.01
GGCAGAGCUCAAAACAGCGUGGCAAAGUGGCUCUGACUAGACUGCC [C13A G33C G36A] | 0.03
GGCAGAGCUCAAAACAGCGUGGCAAACUGGCUGAGGCUUGACUGCC [C13A G27C U34A A39U] | 0.02
GGCAGAGCUCAAGUCAGCGUGGCAAAGUGGCUUUAGCUAGACUGCC [C13G A14U G33U G35A] | 0.01
GGCAGAGCUCAAAACAGCGUGGCAAAGUGGCUGCGGCUAGACAGAC [C13A U34C U43A C45A] | 0.01
GGCAGAGCUCAAAACAGCGUGGCAAAGUGACUGUGGCUAGAAUGCC [C13A G30A C42A] | 0.13
GGCAGAGCUCAAAACAGCGUGGCAAAGUGGCUGGGGUUCGACUGCG [C13A U34G C37U A39C C46G] | 0.02
GGCAGAGCUCAAGUCAGCGUGGCAAAGUGGCUGUGGGUAGACUGGG [C13G A14U C37G C45G C46G] | 0.05
GGCAGAGCUCAAAACAGCCUGGCAAACUGGCUGGGGCUAGACUGCC [C13A G19C G27C U34G] | 0.03
GGCAGAGCUCAAAACAGCGUGGCAAAGUGAGUGUGGCUAGAGUGCC [C13A G30A C31G C42G] | 0.04
GGCAGAGCUCAAAACAGCGUGGCAAAGUGGCUUUCGCUGGAUUGCC [C13A G33U G35C A39G C42U] | 0.07
GGCAGAGCUCAAAAUAGCGUGGCAAAGUGGCUCUGGCUAGACUGCC [C13A C15U G33C] | 0.03

Variant | self-cleavage
GGCAGAGCUCAAAAUGGCGUGGCAAAGUGGCUGGGGAUAGACUGCC [C13A C15U A16G U34G C37A] | 0.06
GGCAGAGCUCAAGCCAGCGUGGCAAAGUGGCUGUGGCGAGACUGCC [C13G A14C U38G] | 0.03
GGCAGAGCUCAAGGUACCGUGGCAAAGUGGCUAUGGCUAGACUGCC [C13G A14G C15U G17C G33A] | 0.02
GGCAGAGCUCAAAACAGCGUGGCAAAUUGGCUGUCGCUAGACUGCC [C13A G27U G35C] | 0.05
GGCAGAGCUCAAAAGAGCGUGGCAAAUUGGCUGUGGCUAGACUGCC [C13A C15G G27U] | 0.03
GGCAGAGCUCAAAACAGCGUGGCAAAGUGGCUGCGGCUAGGCUGCC [C13A U34C A41G] | 0.08
GGCAGAGCUCAAAACAGUUUGGCAAAGUGGCUGUGGCUACACUGCC [C13A C18U G19U G40C] | 0.01
GGCAGAGCUCAAAACAGCGUGGCAAUGUGGCUGUGGCUAGACUACC [C13A A26U G44A] | 0.23
GGCAGAGCUCAAGGCAGCAUGACAAGGUGGCUGUGGCUGGACUGCC [C13G A14G G19A G22A A26G A39G] | 0.07
GGCAGAGCUCAAGGCAUCGUGGAAAAGUGUCUGUGGCUAGACUGCC [C13G A14G G17U C23A G30U] | 0.02
GGCAGAGCUCAAGACGGCGUGGCAAAGUGGCUGUGGUGAGACUGAC [C13G A16G C37U U38G C45A] | 0
GGCAGAGCUCAAAACAGCGUGACAAAGUGGCUGUGGCUAGACUGCG [C13A G22A C46G] | 0.13
GGCAGAGCUCAAGACGGCGUGGACAAGUGGCUGUGGCUAGACUGCC [C13G A16G C23A A24C] | 0.03
GGCAGAGCUCAAAACAGGAUGGCAAAGUUGUUGUGGAUAGACUGCC [C13A C18G G19A G29U C31U C37A] | 0.03
GGCAGAGCUCAAAACAGAGUGGCAAAGCGGCUGUGGCUAGACUACC [C13A C18A U28C G44A] | 0.05
GGCAGAGCUCAAAACAGCGGCGCUAAGUGGCUGAGGCUAGACUGCC [C13A U20G G21C A24U U34A] | 0.04
GGCAGAGCUCAAAACAGCGUGGCAAAGUGGUUGUGGCUAUACUGCC [C13A C31U G40U] | 0.3
GGCAGAGCUCAAAACAGCGUGGCAAUGUGGCUGUGGCUAGACUGCG [C13A A26U C46G] | 0.14
